# Reference: PubChem BioAssay AID588342 (National Center for Advancing Translational Sciences (NCATS), 2011)
# Out of some 360,000 compounds screened, about 25,000 (6.9%) were called active. Inconclusive means that the source gave no clear call. Such entries were picked first, then a sample of the others. Calls follow the shape of the dose curve; as a rule, active = well fitted inhibition curve with a large enough effect; inconclusive = small, poorly fitted or top-dose-only effect; inactive = flat fitted curve, though single readings scatter. Where the call is inconclusive, the potency comes from a doubtful curve fit.
# Target: Luciferin 4-monooxygenase (Photinus pyralis) (UniProt P08659)
# UniProt P08659, sequence (P08659 whole entry, looked up): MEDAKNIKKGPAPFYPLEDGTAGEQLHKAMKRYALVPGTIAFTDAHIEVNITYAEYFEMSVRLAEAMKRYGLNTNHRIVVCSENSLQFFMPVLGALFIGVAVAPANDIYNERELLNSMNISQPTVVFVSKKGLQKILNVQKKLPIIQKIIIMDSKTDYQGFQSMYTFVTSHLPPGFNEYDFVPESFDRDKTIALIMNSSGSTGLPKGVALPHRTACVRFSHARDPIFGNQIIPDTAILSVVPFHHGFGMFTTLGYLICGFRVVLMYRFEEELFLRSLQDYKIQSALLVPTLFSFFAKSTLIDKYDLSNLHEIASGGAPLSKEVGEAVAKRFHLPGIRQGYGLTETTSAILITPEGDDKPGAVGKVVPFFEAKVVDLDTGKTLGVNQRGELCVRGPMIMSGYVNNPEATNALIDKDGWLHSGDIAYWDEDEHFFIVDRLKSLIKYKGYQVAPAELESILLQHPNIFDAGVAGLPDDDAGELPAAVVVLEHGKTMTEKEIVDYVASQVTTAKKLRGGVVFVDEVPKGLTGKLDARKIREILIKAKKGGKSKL
# Test: qHTS profiling assay for firefly luciferase inhibitor/activator using purifed enzyme and Km concentrations of substrates (counterscreen for miR-21 project); also: nearly all actives have a fitted effect of over 55% in size;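 as to activity change, negative = inhibition: plate controls were vehicle for no effect and reference inhibitor for full effect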
# Settings: purified FLuc, luminescence inhibition; series mostly up to 57.5 µM; activity change, negative = inhibition: at the top concentration
# How it was run: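 Purified P. pyralis luciferase, 10 nM final, with Km-level 10 uM D-luciferin and 10 uM ATP in 50 mM Tris acetate pH 7.5, 10 mM Mg acetate, 0.01% Tween-20, 0.05% BSA; 6-point qHTS titration about 60 µM downward; luminescence read.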
# Potency is read from the fitted curve at half-maximal effect; tags tell the direction and shape of the fitted curve.
Compound,Potency,"activity change, negative = inhibition"
Cc1ccc2oc(Nc3nc(C)c(C)c(C)n3)nc2c1,active: 10.7 µM,–
O=C(Nc1ccc(F)c(Cl)c1)C1CCCCC1,–,inactive: -17.8%
O=C(N/N=C/c1cccc([N+](=O)[O-])c1)c1ccc(CN2CCOCC2)cc1,"inconclusive: 23.9 µM [inhibitor, single point]",–
COc1ccccc1C(=O)NCC(c1cccnc1)N1CCc2ccccc2C1 (stereo unspecified),active: 2.69 µM,–
COc1ccc2oc(=O)c(C(=O)Nc3ccccc3O)cc2c1,active: 0.601 µM,–
Cc1ccccc1-c1ccc(/C=C2/SC(N3CCOCC3)=NC2=O)o1,"inconclusive: 10.7 µM [inhibitor, partial curve, poor fit]",–
O=C(NCCCc1ccccc1)Nc1cccc(Cl)c1,"inconclusive: 30.1 µM [inhibitor, single point]",–
Cc1ccc(-c2nn(-c3ccccc3)cc2/C=C2\SC(=S)N(CCCCCC(=O)O)C2=O)o1,"inconclusive: 42.6 µM [inhibitor, partial curve, poor fit]",–
CCNC(=O)CCc1nc(-c2ccc(C(C)(C)C)cc2)no1,active: 4.78 µM,–
CCOC(=O)c1cnc(SCc2ccc(C(C)(C)C)cc2)nc1N,–,inactive: -19.4%
CN(c1ccccc1)S(=O)(=O)c1cccc(NC(=O)C2CC(=O)N(Cc3ccccc3)C2)c1 (stereo unspecified),–,inactive: -2.76%
Cc1nc2cc(NC(=O)NCc3ccccc3)ccc2o1,"inconclusive: 15.1 µM [inhibitor, partial curve]",–
COc1ccccc1NC(=O)C1=C(C)Nc2nnnn2C1c1ccc(C(F)(F)F)cc1 (stereo unspecified),–,inactive: -10.6%
Cc1ccc(NC(=O)CNC(=O)c2cccc(Cl)c2)nc1,"inconclusive: 23.9 µM [inhibitor, single point]",–
CCOC(=O)c1ccc(N=CC2=C(O)CC(C)(C)CC2=O)cc1,"inconclusive: 23.9 µM [inhibitor, single point]",–
CCn1cc(/C=C/C(=O)Nc2ccc(C)cc2Br)cn1,"inconclusive: 26.9 µM [inhibitor, partial curve]",–
Cc1csc(NC(=O)c2ccc(S(=O)(=O)N3CCCC3)cc2)n1,"inconclusive: 37.9 µM [inhibitor, partial curve, poor fit]",–
Cc1c(C(=O)NC(=S)Nc2ccc(N3CCOCC3)cc2)cccc1[N+](=O)[O-],"inconclusive: 37.9 µM [inhibitor, partial curve, poor fit]",–
CC(=O)c1c(C)oc2c1cc(NS(=O)(=O)c1ccc(Br)cc1)c1ccccc12,"inconclusive: 30.1 µM [inhibitor, partial curve, poor fit]",–
CC1(C)CC(=O)C2=C(C1)OC1=C(C(=O)CC(C)(C)C1)C2c1cc([N+](=O)[O-])cc([N+](=O)[O-])c1O,"inconclusive: 23.9 µM [inhibitor, partial curve, poor fit]",–
O=C(Nc1ccccc1Cl)c1ccc(Cl)cc1Cl,active: 13.5 µM,–
COCCCn1c(C)cc(C(=O)CN2c3cccc4cccc(c34)S2(=O)=O)c1C,"inconclusive: 23.9 µM [inhibitor, single point]",–
CCC1=NN2C(=N)/C(=C\c3cccn3-c3ccc(OC)cc3)C(=O)N=C2S1,"inconclusive: 19 µM [inhibitor, partial curve]",–
O=C(Nc1ccccc1F)c1ccc2c(Cl)c3c(nc2c1)CCC3,active: 0.151 µM,–

Compound,Potency,"activity change, negative = inhibition"
c1ccc(COc2ccc(OCCCNC3CCCC3)cc2)cc1,"inconclusive: 30.1 µM [inhibitor, single point]",–
O=C(CSc1nc2ccc(Cl)cc2[nH]1)c1ccc2c(c1)OCO2,"inconclusive: 37.9 µM [inhibitor, partial curve, poor fit]",–
CC(C)n1cnc2cc(NCc3nc4ccccc4n3C)ccc21,active: 4.78 µM,–
CCN(CCCNC(=O)c1nn(-c2ccc(OC)cc2)c(=O)c2c1c1ccccc1n2C)c1ccccc1,–,inactive: 0.815%
CC(=O)c1c(C)[nH]c(C(=O)Nc2cc(C)cc(C)c2)c1C,"inconclusive: 23.9 µM [inhibitor, partial curve]",–
CCc1ccc(/C=C2\SC(=S)N(CCC(=O)NCCCN3CCOCC3)C2=O)cc1,active: 6.75 µM,–
COc1ccc(-n2ncc3c(NC4CCCC4)ncnc32)cc1,active: 1.35 µM,–
COc1ccc(S(=O)(=O)Nc2ccc(-c3cn4c(C)csc4n3)cc2)cc1,"inconclusive: 26.9 µM [inhibitor, single point]",–
CC(=O)Nc1cc2ccc(OC(C)=O)cc2oc1=O,"inconclusive: 26.9 µM [inhibitor, partial curve, poor fit]",–
COc1ccccc1CNC(=O)CCCC(=O)n1ncc2cc(C)ccc21,–,inactive: 1.96%
COc1ccc(NC(=O)CSc2nnc(NC(C)=O)s2)c([N+](=O)[O-])c1,"inconclusive: 0.0095 µM [inhibitor, partial curve, poor fit]",–
NS(=O)(=O)c1cccc(NC(=O)CSc2n[nH]c(-c3cccs3)n2)c1,"inconclusive: 23.9 µM [inhibitor, partial curve]",–
O=C(CN1C(=O)/C(=C\c2ccco2)SC1=S)Nc1ccc(O)cc1C(=O)O,"inconclusive: 21.3 µM [inhibitor, single point]",–
Cc1cc(=O)n2[nH]c(SCc3ccccc3)nc2n1,"inconclusive: 37.9 µM [inhibitor, single point]",–
COc1cccc(NC(=O)C(=S)NC2CCCCC2)c1,active: 2.39 µM,–
Cc1cc(C)cc(NC(=O)c2cc(CN3CCCC3)on2)c1,"inconclusive: 19 µM [inhibitor, partial curve]",–
Cc1ccc(Cc2nc(-c3cccnc3)no2)cc1,"inconclusive: 30.1 µM [inhibitor, partial curve, poor fit]",–
CC(=O)Cc1nsc(NC(=O)c2cn(-c3ccccc3)nc2-c2ccc(Br)cc2)n1,–,inactive: 1.64%
Cc1ccc(-n2nc(C(=O)O)cc2-c2ccc(Cl)cc2)cc1,"inconclusive: 23.9 µM [inhibitor, single point]",–
Cc1c2ccccc2c(C)c2c1ccc1ccccc12,active: 13.5 µM,–
Cc1ccc2c(c1)-c1ncc(C(=O)c3ccccc3O)cc1CO2,"inconclusive: 37.9 µM [inhibitor, partial curve, poor fit]",–
Cc1cc(C)cc(NC(=O)CSc2nc(-c3ccccc3)c3cc(F)ccc3n2)c1,–,inactive: -1.42%
CC(C)Oc1ccc(C(=O)Nc2ccc([N+](=O)[O-])cc2)cc1,"inconclusive: 1.69 µM [inhibitor, full curve]",–
O=C(Nc1ccccc1N1CCOCC1)c1ccc2ccccc2n1,active: 7.57 µM,–

Compound,Potency,"activity change, negative = inhibition"
Cc1cccc(N2CCN(C(=O)CNC(=O)C3CCCCC3)CC2)c1C,"inconclusive: 23.9 µM [inhibitor, partial curve, poor fit]",–
CN(C(=O)c1ccc(NC(=O)Cc2cccc(NC(=O)C3CCN(C(=O)C4CCCCC4)CC3)c2)cc1)C1CCCC1,–,inactive: -2.22%
S=C(NCc1ccc2c(c1)OCO2)NCc1ccco1,–,inactive: -12.6%
O=C(CSc1nnc(-c2cccs2)o1)N1CCc2ccccc21,"inconclusive: 26.9 µM [inhibitor, partial curve, poor fit]",–
CN(C)c1ccc(/C=N/NC(=O)Cn2nnc3ccccc32)cc1,"inconclusive: 23.9 µM [inhibitor, single point]",–
COc1ccc(-c2nc(SCC(=O)Nc3ccc4c(c3)OCCO4)c(-c3ccc(C)cc3)[nH]2)cc1OC,"inconclusive: 13.5 µM [inhibitor, partial curve, poor fit]",–
Cc1c(Cl)cnc(NC(=O)CSc2nnc3ccccn23)c1Cl,"inconclusive: 16.9 µM [inhibitor, partial curve]",–
Cc1nn(CC(=O)c2ccccc2Cl)c(C)c1[N+](=O)[O-],active: 10.7 µM,–
CC(N=C(NC#N)Nc1ccncc1)C(C)(C)C (stereo unspecified),–,inactive: 6.96%
COCc1cc(C)nc2sc(C(=O)Nc3cccc(OC)c3)c(N)c12,active: 8.49 µM,–
CN(C)c1nc(NN)nc(Nc2ccc(F)cc2)n1,–,inactive: 2.45%
COc1ccc(NC(=O)CSc2ccc3nc(-c4ccccc4)cn3n2)cc1OC,–,inactive: -18.3%
Cc1ccc(CNC(=O)CN2C(=O)COc3ccc(S(=O)(=O)Nc4ccccc4)cc32)cc1,"inconclusive: 21.3 µM [inhibitor, partial curve, poor fit]",–
COc1ccccc1C(=O)C1CCCN(C(=O)c2cn3cc(Cl)ccc3n2)C1 (stereo unspecified),active: 13.5 µM,–
COc1ccc(NC(=O)c2ccc(OC)c(S(=O)(=O)N3CCCCC3C)c2)cn1 (stereo unspecified),–,inactive: -0.0253%
CCOC(=O)c1cc2c(=O)[nH]c(C(Cl)(Cl)Cl)nc2o1,"inconclusive: 30.1 µM [inhibitor, single point]",–
CN(C)c1ccc(C(=O)Nc2ccc(S(=O)(=O)Nc3nccs3)cc2)cc1,"inconclusive: 5.36 µM [inhibitor, partial curve, poor fit]",–
Cc1ccc2nc3sc(C(=O)NCCCN(C)c4ccccc4)cc3cc2c1,"inconclusive: 7.57 µM [inhibitor, partial curve]",–
CCOC(=O)N1CCN(C(=O)/C=C/c2ccc(C(C)(C)C)cc2)CC1,"inconclusive: 23.9 µM [inhibitor, single point]",–
Fc1cccc(-n2ncc3c2ncn2nc(Cc4ccccc4)nc32)c1,–,inactive: -4.37%
C=CCOc1ccc(/C=C2\SC(=S)N(NS(=O)(=O)c3ccccc3)C2=O)cc1,"inconclusive: 21.3 µM [inhibitor, single point]",–
Cc1cccc(C(=O)Nc2nnc(C3=COCCO3)o2)c1,"inconclusive: 37.9 µM [inhibitor, partial curve, poor fit]",–
Cc1cn(-c2ccc(Br)cc2)[nH]c1=O,"inconclusive: 23.9 µM [inhibitor, single point]",–
